Test results reported in PubChem BioAssay AID2675 (National Center for Advancing Translational Sciences (NCATS), 2010).
About 100 (0.036%) of roughly 280,000 compounds were called active. Inconclusive means that the source gave no clear call. Such entries were picked first, then a sample of the others. Calls come from the whole dose curve; as a rule, active = well fitted inhibition curve with a large enough effect in the signal ratio, with a control signal flat (not every such curve was filed as active); inconclusive = small, poorly fitted or top-dose-only effect, or effect the other way, or a change in a side signal; inactive = no such curve, though single readings can be large or run the other way; the % refers to the signal ratio. A potency beside an inconclusive call is a rough fit, not a confirmed value. “Side channel” marks fits to a control or component signal instead of the main read-out.

Target: Muscleblind-like protein 1 (Homo sapiens) (UniProt Q9NR56)
Experiment: qHTS Assay for Inhibitors of MBNL1-poly(CUG) RNA binding
Settings: TR-FRET MBNL1-His/biotin-(CUG)12 binding, 665/545 ratio; activity change, negative = inhibition: at 57.5 µM (top of the series)
Summary of the method: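 TR-FRET between His-tagged MBNL1 and biotin-(CUG)12 RNA, detected with Tb anti-His antibody (0.055 ng/ul) and streptavidin-XL665 (5 nM), 60 min at room temperature. Compounds titrated 92 nM to 58 uM; 665/545 nm ratio normalized to buffer and complex controls.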
% is set by controls: 0 for no effect and ±100 for the full control effect; potency is the fitted concentration of half-maximal effect; tags give direction and shape of the fitted curve or compound fluorescence and quenching.

Sequence of UniProt Q9NR56 (Q9NR56 whole entry, looked up): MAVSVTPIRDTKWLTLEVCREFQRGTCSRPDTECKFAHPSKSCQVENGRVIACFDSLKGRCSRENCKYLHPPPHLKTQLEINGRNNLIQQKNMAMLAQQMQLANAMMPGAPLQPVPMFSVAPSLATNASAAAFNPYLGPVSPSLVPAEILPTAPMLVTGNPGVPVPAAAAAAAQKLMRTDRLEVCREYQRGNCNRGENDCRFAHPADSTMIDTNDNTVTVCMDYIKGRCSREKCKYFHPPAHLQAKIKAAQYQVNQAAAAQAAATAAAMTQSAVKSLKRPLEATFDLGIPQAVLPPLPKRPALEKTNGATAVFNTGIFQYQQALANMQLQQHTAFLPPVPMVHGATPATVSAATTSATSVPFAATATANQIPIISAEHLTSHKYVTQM

Structure (SMILES)	Potency	activity change, negative = inhibition
COc1ccc(NC(=S)NC(NC(=O)c2ccccc2Cl)C(Cl)(Cl)Cl)c([N+](=O)[O-])c1 (stereo unspecified)	inconclusive: 28.2 µM [quencher, side channel, single point]	–
O=C1NC(c2ccc(-c3ccccc3[N+](=O)[O-])o2)C(C(=O)c2ccc(Cl)cc2)C(O)(C(F)(F)F)N1 (stereo unspecified)	inconclusive: 39.8 µM [fluorescent, side channel, partial curve, poor fit]	–
CC(=O)c1cnc2c(-c3ccc(Cl)cc3)cnn2c1C	–	inactive: 9.93%
CCc1nnc(NS(=O)(=O)c2ccc(NC(=S)NC(=O)/C=C/c3ccc(C(C)C)cc3)cc2)s1	–	inactive: 1.15%
Cc1cc(C(=O)NC(=S)Nc2cccc(C(=O)O)c2C)ccc1[N+](=O)[O-]	inconclusive: 10 µM [quencher, side channel, partial curve]	–
CCOC(=O)c1cnc2c(OC)cccc2c1NCc1cccnc1	inconclusive: 31.6 µM [quencher, side channel, single point]	–
O=C(COC(=O)c1cccc([N+](=O)[O-])c1)NCC1CCCO1 (stereo unspecified)	inconclusive: 11.2 µM [quencher, side channel, partial curve]	–
O=C(c1cc(-c2ccco2)on1)N1CCN(c2ccccc2)CC1	inconclusive: 39.8 µM [quencher, side channel, single point]	–
O=C(NC(=S)Nc1ccccc1O)c1ccc(-c2ccc(Cl)cc2)o1	–	inactive: 5.72%
CCC1(CC)NC(=O)N(CC(=O)OCC(=O)Nc2ccccc2[N+](=O)[O-])C1=O	inconclusive: 17.8 µM [quencher, side channel, partial curve]	–
O=C(O)[C@@H]1CCCN1C(=O)c1ccco1	inconclusive: 39.8 µM [fluorescent, side channel, single point]	–
CCOC(=O)C(NCc1ccc(F)cc1)(NC(=O)c1ccccc1)C(F)(F)F (stereo unspecified)	–	inactive: -5.25%
Cc1ccc(OCC(=O)Nc2c(C)ccc3nsnc23)cc1	inconclusive: 11.2 µM [quencher, side channel, partial curve]	–
CC1CCN(S(=O)(=O)c2cc([N+](=O)[O-])ccc2Cl)CC1	inconclusive: 14.1 µM [quencher, side channel, partial curve]	–
Cc1cc(=O)oc(C)c1C(=O)OCC(=O)c1ccc(Br)cc1	inconclusive: 79.4 µM [inhibitor, single point]	–
O=C(COc1cc2oc(=O)cc(-c3ccccc3)c2cc1Cl)NC(Cc1c[nH]c2ccc(O)cc12)C(=O)O (stereo unspecified)	inconclusive: 35.5 µM [quencher, side channel, single point]	–
CC(=O)c1ccc2c(c1)C1C=CCC1C(c1ccncc1)N2 (stereo unspecified)	inconclusive: 20 µM [quencher, side channel, partial curve]	–
COc1ccc(N(CC(=O)N/N=C/c2ccc3c(c2)OCO3)S(=O)(=O)c2ccc(NC(C)=O)cc2)cc1	inconclusive: 25.1 µM [quencher, side channel, single point]	–

Structure (SMILES)	Potency	activity change, negative = inhibition
Cc1ccc(NC(=O)/C=C/c2ccc3c(c2)OCO3)cc1S(=O)(=O)N1CCOCC1	inconclusive: 20 µM [quencher, side channel, single point]	–
CCCCOc1ccc(-c2nnc(-c3cc[n+](C)cc3)o2)cc1	inconclusive: 3.16 µM [quencher, side channel, partial curve]	–
CC1=CN2C(=N)/C(=C/c3ccc(C)o3)C(=O)N=C2S1	inconclusive: 14.1 µM [quencher, side channel, partial curve]	–
Cn1ccnc1SCc1ccc([N+](=O)[O-])cc1	inconclusive: 20 µM [quencher, side channel, single point]	–
Cc1ccc(NC(=O)CCNC(=O)c2ccc([N+](=O)[O-])cc2)cc1S(=O)(=O)N(C)C	inconclusive: 28.2 µM [quencher, side channel, partial curve]	–
CC(C)C(=O)Nc1ccc2c(c1)C(=O)NC2=O	inconclusive: 15.8 µM [quencher, side channel, partial curve]	–
CCOC(=O)C(C#N)C(c1cccnc1)c1c(C)[nH][nH]c1=O (stereo unspecified)	–	inactive: -6.21%
COC(=O)c1ccccc1C(=O)N1CCOCCN(C(=O)c2ccccc2C(=O)OC)CCOCC1	inconclusive: 0.282 µM [fluorescent, side channel, full curve]	–
CCCC1C2CN(C(C)C)CC=C2C(C#N)=C(N)C1(C#N)C#N (stereo unspecified)	inconclusive: 25.1 µM [quencher, side channel, partial curve]	–
CC(C)COc1ccc(C(=O)N/C(=C\c2cccc([N+](=O)[O-])c2)C(=O)O)cc1	–	inactive: 21.8%
COc1ccc(OCC2c3cc(OC)c(OC)cc3CCN2C(=O)C(C)C)cc1 (stereo unspecified)	–	inactive: -8.28%
CC(C)n1cc(/C=C/c2cc[n+](C)cc2)c2ccccc21	inconclusive: 7.08 µM [quencher, side channel, partial curve]	–
CCN1CCCc2cc(CN(CCN3CCOCC3)C(=S)Nc3ccccc3C)ccc21	inconclusive: 39.8 µM [fluorescent, side channel, single point]	–
CCOn1c(=O)c(-c2cc(OC)ccc2OC)[n+]([O-])c2ccccc21	inconclusive: 17.8 µM [quencher, side channel, partial curve]	–
COCCCNC(=O)/C=C/c1c(Cl)cccc1Cl	inconclusive: 39.8 µM [quencher, side channel, single point]	–
CCCCCCCCCC[n+]1cccc2c3ccccc3ccc21	inconclusive: 28.2 µM [quencher, single point]	–
O=[N+]([O-])c1ccc2c(c1)nc1n2CCN(CC2CCCO2)C1 (stereo unspecified)	inconclusive: 12.6 µM [quencher, side channel, partial curve]	–
O=C(Cn1c2[n+](c3ccc(C(F)(F)F)cc31)CCCCC2)c1cccc([N+](=O)[O-])c1	inconclusive: 25.1 µM [quencher, side channel, partial curve]	–
